The target of this assay is T1, biotinylated truncated STAT6 (123-632)-avi (Homo sapiens, UniProt P42226).
T1 sequence (P42226 123-632 limits assumed): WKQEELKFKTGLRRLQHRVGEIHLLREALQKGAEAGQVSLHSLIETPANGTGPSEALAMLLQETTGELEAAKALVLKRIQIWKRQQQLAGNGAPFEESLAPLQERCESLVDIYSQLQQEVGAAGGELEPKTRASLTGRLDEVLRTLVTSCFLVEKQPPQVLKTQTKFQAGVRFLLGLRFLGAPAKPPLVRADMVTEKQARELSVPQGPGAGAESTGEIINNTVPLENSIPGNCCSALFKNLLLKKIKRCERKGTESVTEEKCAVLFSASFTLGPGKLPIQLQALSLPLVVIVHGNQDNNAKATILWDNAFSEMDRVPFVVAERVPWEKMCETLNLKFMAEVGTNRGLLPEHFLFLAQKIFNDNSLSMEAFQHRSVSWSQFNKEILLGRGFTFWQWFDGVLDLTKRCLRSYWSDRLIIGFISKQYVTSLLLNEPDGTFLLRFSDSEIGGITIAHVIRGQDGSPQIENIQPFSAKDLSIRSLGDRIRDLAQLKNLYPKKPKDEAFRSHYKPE
Kind of assay: Homogenous Time-Resolved Fluorescence (HTRF) binding assay. The note with it: 0.15 nM biotinylated truncated STAT6 (123-632)-avi, 20 nM fluorescein-labeled probe, 30 minutes at room temperature. In general terms: Time-resolved FRET reads energy transfer from a long-lived donor to a nearby acceptor.

The results in this text go back to patent publication US20250214977A1, “STAT6 INHIBITORS AND USES THEREOF” (Kymera Therapeutics, Inc., priority 2024, published 2025).

Molecule `COc1cc(F)cnc1N1CCN(C(=O)c2cc3c(-c4cnn(-c5ccccc5)c4)cc(C4=CCCN(C(=O)CCn5ccnn5)C4)c(F)c3[nH]2)CC1` [Example I-671] yielded a 50% inhibitory concentration (IC50) of 0.1 to 1 µM.
With `COc1cc(F)cnc1N1CCN(C(=O)c2cc3c(-c4cccc(C)c4)cc(C4=CCCN(C(=O)CCn5ccnn5)C4)c(F)c3[nH]2)CC1` [Example I-673], the IC50 is less than 0.1 µM.
The value for `COc1cc(F)cnc1N1CCN(C(=O)c2cc3c(-c4cccc(C5CC5)c4)cc(C4=CCCN(C(=O)CCn5ccnn5)C4)c(F)c3[nH]2)CC1` [Example I-674] was 0.1 to 1 µM.
The value for `C=C(C)c1cc(C2=CCCN(C(=O)CCn3ccnn3)C2)c(F)c2[nH]c(C(=O)N3CCN(c4ncc(F)cc4OC)CC3)cc12` [Example I-675] was less than 0.1 µM; that for `COc1cc(F)cnc1N1CCN(C(=O)c2cc3c(-c4ccc(F)c(C)c4)cc(C4=CCCN(C(=O)CCn5ccnn5)C4)c(F)c3[nH]2)CC1` [Example I-676] was 0.1 to 1 µM; that for `CCC/C=C/c1cc(C2=CCCN(C(=O)CCn3ccnn3)C2)c(F)c2[nH]c(C(=O)N3CCN(c4ncc(F)cc4OC)CC3)cc12` [Example I-677] was less than 0.1 µM.
The value for `COc1cc(F)cnc1N1CCN(C(=O)c2cc3c(-c4cccc5c4OCCCO5)cc(C4=CCCN(C(=O)CCn5ccnn5)C4)c(F)c3[nH]2)CC1` [Example I-678] was less than 0.1 µM; that for `CCSc1ccccc1-c1cc(C2=CCCN(C(=O)CCn3ccnn3)C2)c(F)c2[nH]c(C(=O)N3CCN(c4ncc(F)cc4OC)CC3)cc12` [Example I-679] was less than 0.1 µM; that for `COc1cc(F)cnc1N1CCN(C(=O)c2cc3c(-c4ccnc(N5CCOCC5)c4)cc(C4=CCCN(C(=O)CCn5ccnn5)C4)c(F)c3[nH]2)CC1` [Example I-680] was less than 0.1 µM.
In turn, `COc1cc(F)cnc1N1CCN(C(=O)c2cc3c(-c4cccc(C(C)(C)C#N)c4)cc(C4=CCCN(C(=O)CCn5ccnn5)C4)c(F)c3[nH]2)CC1` [Example I-682] gave an IC50 of less than 0.1 µM.
`CCc1ccncc1-c1cc(C2=CCCN(C(=O)CCn3cccn3)C2)c(F)c2[nH]c(C(=O)N3CCN(c4ncc(OC)cc4OC)CC3)cc12` [Example I-683] had an IC50 of less than 0.1 µM.
The value for `CCc1cnccc1-c1cc(C2=CCCN(C(=O)CCn3cccn3)C2)c(F)c2[nH]c(C(=O)N3CCN(c4ncc(OC)cc4OC)CC3)cc12` [Example I-684] was less than 0.1 µM; that for `CCc1ccncc1-c1cc(C2=CCCN(C(=O)CCn3cccn3)C2)c(F)c2[nH]c(C(=O)N3CCN(c4ncc(F)cc4OC)CC3)cc12` [Example I-686] was less than 0.1 µM.
Next, `COc1ccccc1-c1cc(C2=CCCN(C(=O)CCn3cccn3)C2)c(F)c2[nH]c(C(=O)N3CCN(c4ncc(F)cc4OC)CC3)cc12` [Example I-687]: less than 0.1 µM; `CCc1cnccc1-c1cc(C2=CCCN(C(=O)CCn3cccn3)C2)c(F)c2[nH]c(C(=O)N3CCN(c4ncc(F)cc4OC)CC3)cc12` [Example I-688]: less than 0.1 µM; `CCc1cnccc1-c1cc(C2=CCCN(C(=O)CCn3ccnn3)C2)c(F)c2[nH]c(C(=O)N3CCN(c4ncc(F)cc4OC)CC3)cc12` [Example I-689]: less than 0.1 µM.
The value for `COc1cccnc1N1CCN(C(=O)c2cc3c(-c4cccc5c4OC(F)(F)O5)cc(C4=CCCN(C(=O)CCn5ccnn5)C4)c(F)c3[nH]2)CC1` [Example I-690] was less than 0.1 µM; that for `COc1cc2c(-c3cc(C4=CCCN(C(=O)CCn5ccnn5)C4)c(F)c4[nH]c(C(=O)N5CCN(c6ncc(F)cc6OC)CC5)cc34)ccnc2cc1F` [Example I-691] was less than 0.1 µM; that for `CCc1nccn1-c1cc(C2=CCCN(C(=O)CCn3ccnn3)C2)c(F)c2[nH]c(C(=O)N3CCN(c4ncccc4OC)CC3)cc12` [Example I-692] was greater than 100 µM.
Molecule `CCCc1cc(C2=CCCN(C(=O)CCn3ccnn3)C2)c(F)c2[nH]c(C(=O)N3CCN(c4ncc(F)cc4OC)CC3)cc12` [Example I-693] came in with an IC50 greater than 100 µM.
The value for `COc1cc(F)cnc1N1CCN(C(=O)c2cc3c(C4CC4)cc(C4=CCCN(C(=O)CCn5ccnn5)C4)c(F)c3[nH]2)CC1` [Example I-694] was greater than 100 µM; that for `CCCCCCc1cc(C2=CCCN(C(=O)CCn3ccnn3)C2)c(F)c2[nH]c(C(=O)N3CCN(c4ncc(F)cc4OC)CC3)cc12` [Example I-695] was greater than 100 µM; that for `COc1ccncc1-c1cc(C2=CCCN(C(C)=O)C2)c(F)c2[nH]c(C(=O)N3CCN(c4ncc(F)cc4OC)CC3)cc12` [Example I-696] was greater than 100 µM.
Next, `COc1cnccc1-c1cc(C2=CCCN(C(C)=O)C2)c(F)c2[nH]c(C(=O)N3CCN(c4ncc(F)cc4OC)CC3)cc12` [Example I-697]: greater than 100 µM; `COc1cccnc1N1CCN(C(=O)c2cc3c(C4CCC5(CCNCC5)CC4)cc(C4=CCCN(C(=O)CCn5ccnn5)C4)c(F)c3[nH]2)CC1` [Example I-698]: 10 to 100 µM; `CCc1ccncc1-c1cc(C2=CCCN(C(C)=O)C2)c(F)c2[nH]c(C(=O)N3CCN(c4cc(F)cnc4OC)CC3)cc12` [Example I-699]: 10 to 100 µM.
Next, `CCc1ccccc1-c1cc(C2=CCCN(C(=O)CCn3ccnn3)C2)c(F)c2[nH]c(C(=O)N3Cc4cnn(C)c4C3)cc12` [Example I-700]: 10 to 100 µM; `COc1ccncc1-c1cc(C2=CCCN(C(C)=O)C2)c(F)c2[nH]c(C(=O)N3Cc4cnn(C)c4C3)cc12` [Example I-701]: 10 to 100 µM.
As to `CCc1ccncc1-c1cc(C2=CCCN(C(C)=O)C2)c(F)c2[nH]c(C(=O)N3Cc4cnn(C)c4C3)cc12` [Example I-702], the IC50 fell in the range of 10 to 100 µM.
The value for `COc1cc(F)cnc1N1CCN(C(=O)c2cc3c(-c4ccncc4C(C)C)cc(C4=CCCN(C(=O)CCn5ccnn5)C4)c(F)c3[nH]2)CC1` [Example I-703] was 10 to 100 µM.
Next, `CCc1ccncc1-c1cc(C2=CCCN(C(=O)CCn3ccnn3)C2)c(F)c2[nH]c(C(=O)N3Cc4cnn(C)c4C3)cc12` [Example I-704]: 10 to 100 µM.
The value for `CCc1cnccc1-c1cc(C2=CCCN(C(C)=O)C2)c(F)c2[nH]c(C(=O)N3Cc4cnn(C)c4C3)cc12` [Example I-705] was 10 to 100 µM; that for `CCc1cnccc1-c1cc(C2=CCCN(C(C)=O)C2)c(F)c2[nH]c(C(=O)N3CCN(c4ncc(F)cc4OC)CC3)cc12` [Example I-706] was 10 to 100 µM; that for `CCc1cc(C)ncc1-c1cc(C2=CCCN(C(=O)CCn3ccnn3)C2)c(F)c2[nH]c(C(=O)N3CCN(c4ncc(F)cc4OC)CC3)cc12` [Example I-707] was 10 to 100 µM.
In turn, `CCc1ccncc1-c1cc(C2=CCCN(C(=O)OC)C2)c(F)c2[nH]c(C(=O)N3CCN(c4ncc(F)cc4OC)CC3)cc12` [Example I-708] had an IC50 of 10 to 100 µM.
The value for `CCn1ncc2c1CN(C(=O)c1cc3c(-c4ccncc4OC)cc(C4=CCCN(C(C)=O)C4)c(F)c3[nH]1)C2` [Example I-715] was 10 to 100 µM; that for `COc1ncccc1-c1cc(C(=O)N2Cc3cnn(C)c3C2)cc2cc(C3=CCCN(C(=O)CCn4ccnn4)C3)n(CC3CC3)c12` [Example I-717] was 10 to 100 µM; that for `COc1cccnc1N1CCN(C(=O)c2cc3c(-c4cnc(C)c(C)c4OC)cc(C4=CCCN(C(=O)CCn5ccnn5)C4)c(F)c3[nH]2)CC1` [Example I-724] was less than 0.1 µM.
Next, `COc1cc(F)cnc1N1CCN(C(=O)c2cc3c(C4CCN(C)CC4)cc(C4=CCCN(C(=O)CCn5ccnn5)C4)c(F)c3[nH]2)CC1` [Example I-725]: less than 0.1 µM.
Next, `COc1cc(F)cnc1N1CCN(C(=O)c2cc(-c3cccnc3OC)c3c(c2)cc(C2=CCCN(C(=O)CCn4ccnn4)C2)n3CC2CC2)CC1` [Example I-726]: less than 0.1 µM; `CCc1ccncc1-c1cc(C(=O)N2Cc3cnn(C)c3C2)cc2cc(C3=CCCN(C(=O)CCn4ccnn4)C3)n(CC3CC3)c12` [Example I-727]: less than 0.1 µM.
`COc1cc(F)cnc1N1CCN(C(=O)c2cc(-c3cccnc3C3CC3)c3c(c2)cc(C2=CCCN(C(=O)CCn4ccnn4)C2)n3CC2CC2)CC1` [Example I-728] came in with a half-maximal inhibitory concentration (IC50) greater than 100 µM.
Next, `COc1cnccc1-c1cc(C(=O)N2CCN(c3ncc(F)cc3OC)CC2)cc2cc(C3=CCCN(C(=O)CCn4ccnn4)C3)n(CC3CC3)c12` [Example I-729]: less than 0.1 µM; `CCC1=C(c2cc(C3=CCCN(C(=O)CCn4ccnn4)C3)c(F)c3[nH]c(C(=O)N4CCN(c5ncc(F)cc5OC)CC4)cc23)CN(C)CC1` [Example I-730]: less than 0.1 µM; `CCC1=C(c2cc(C3=CCCN(C(=O)CCn4ccnn4)C3)c(F)c3[nH]c(C(=O)N4CCN(c5ncc(F)cc5OC)CC4)cc23)CCNC1` [Example I-731]: less than 0.1 µM.
The value for `CCn1c(C2=CCCN(C(=O)CCn3ccnn3)C2)cc2cc(C(=O)N3CCN(c4ncc(F)cc4OC)CC3)cc(-c3ccccc3OC)c21` [Example I-734] was less than 0.1 µM.
Take `CCc1nc(C)ccc1-c1cc(C2=CCCN(C(=O)CCn3ccnn3)C2)c(F)c2[nH]c(C(=O)N3CCN(c4ncc(F)cc4OC)CC3)cc12` [Example I-735]: the half-inhibitory concentration (IC50) is less than 0.1 µM.
The value for `COc1ccccc1-c1cc(C(=O)N2Cc3cnn(C)c3C2)cc2cc(C3=CCCN(C(=O)CCn4ccnn4)C3)n(CC3CC3)c12` [Example I-736] was less than 0.1 µM.
Take `CCc1cc(C)ncc1-c1cc(C2=CCCN(C(=O)CCn3ccnn3)C2)c(F)c2[nH]c(C(=O)N3CCN(c4nc(C)c(F)cc4OC)CC3)cc12` [Example I-737]: the IC50 is less than 0.1 µM.

As usually defined, the IC50 is the concentration needed to halve the response being measured. The low end stands for greater potency, the high end for weaker potency.
